Data from PubChem BioAssay AID902 (National Center for Advancing Translational Sciences (NCATS), 2007).
Out of some 130,000 compounds screened, about 1,900 (1.5%) were called active. The inconclusive results got no clear call from the source; some entries with a clear call stand among them for comparison. Calls follow the shape of the dose curve; as a rule, active = well fitted cell-killing curve with a large enough effect; inconclusive = small, poorly fitted or top-dose-only effect; inactive = no such curve, though single readings can be large or run the other way. Potencies of inconclusive entries are doubtful fits and often do not repeat.

Experiment: qHTS Screen for Compounds that Selectively Target Cancer Cells with p53 Mutations: Cytotoxicity of p53ts Cells at the Nonpermissive Temperature; also: nearly all actives have a fitted effect of over 55% in size
Conditions: H1299-p53A138V viability at 39C, ATP luminescence, 24 h; activity change, negative = cell killing: at 46.1 µM (top of the series)
% is scaled to controls: 0 for no effect and ±100 for the full control effect; potency is read from the fitted curve at half-maximal effect; tags tell the direction and shape of the fitted curve.

Row | SMILES | Potency | activity change, negative = cell killing
1 | C=CCNc1ncnc2c1ncn2C1OC(CO)C(O)C1O (stereo not drawn) | inconclusive: 10 µM [cytotoxic, partial curve] | –
2 | Nc1c2c(nc3ccccc13)CCC2 | inconclusive: 35.5 µM [cytotoxic, single point] | –
3 | Cn1cc(C2=C(c3cn(CCCSC(=N)N)c4ccccc34)C(=O)NC2=O)c2ccccc21 | inconclusive: 31.6 µM [cytotoxic, single point] | –
4 | COC(=O)c1ccc(NC(=O)N2CCN(Cc3cc(=O)n4nc(-c5ccc(C)cc5)sc4n3)CC2)cc1 | inactive | –
5 | O=C(CSc1oc(-c2ccc(F)cc2)nc1S(=O)(=O)c1ccc(F)cc1)NCC1CCCO1 (stereo not drawn) | inconclusive: 31.6 µM [cytotoxic, single point] | –
6 | C[C@@]12C[C@H](O)[C@@H]3[C@H](CCC4=CC(=O)CC[C@]43C)[C@H]1CC[C@@H]2c1csc(N)n1 | – | inactive: -0.922% [at 9.22 µM]
7 | Cc1cccc(-n2c(C)nc3cc(C(=O)NCCC4=CCCCC4)ccc32)c1 | inconclusive: 35.5 µM [cytotoxic, partial curve, poor fit] | –
8 | Cc1ccc(/C=C/c2onc(C)c2S(=O)(=O)N2CCC(C(=O)N3CCN(c4ccccc4F)CC3)CC2)cc1 | inactive | –
9 | CCOc1ccc(Nc2nnc(-n3nc(C)cc3C)c3ccccc23)cc1 | inconclusive: 31.6 µM [cytotoxic, single point] | –
10 | CCCOc1cccc(C2c3c(oc4ccccc4c3=O)C(=O)N2c2nncs2)c1 (stereo not drawn) | inconclusive: 31.6 µM [cytotoxic, single point] | –
11 | COc1cccc(C(=O)c2cn(CC(=O)NCc3ccccc3Cl)c3nc(C)ccc3c2=O)c1 | inconclusive: 25.1 µM [cytotoxic, single point] | –
12 | CC(C)c1nn2c(=O)cc(COC(=O)c3ccccc3NC(=O)COc3ccccc3)nc2s1 | inconclusive: 25.1 µM [cytotoxic, single point] | –
13 | CCOc1ccccc1NC(=O)c1c(NCc2cccs2)sc2c1CCC(C)C2 (stereo not drawn) | inconclusive: 0.0794 µM [cytotoxic, full curve, poor fit] | –
14 | Cc1cccc(OCc2ccc(-c3nc(C#N)c(NCc4cccnc4)o3)o2)c1 | inconclusive: 0.158 µM [cytotoxic, full curve, poor fit] | –
15 | O=C(CSc1nc(-c2cccc(F)c2)[nH]c1-c1ccccc1)Nc1ccc2c(c1)OCCO2 | inconclusive: 12.6 µM [cytotoxic, partial curve] | –
16 | CCCOc1ccc(C(=O)Nc2ccc(NC(=O)c3ccccc3)c(Br)c2)cc1 | inconclusive: 12.6 µM [cytotoxic, single point] | –
17 | COc1ccc(OCCSc2ncccn2)cc1 | inconclusive: 6.31 µM [cytotoxic, partial curve] | –
18 | Cc1ccc(-c2nnn3c2nc(NCC(C)c2ccccc2)c2ccccc23)cc1 (stereo not drawn) | inconclusive: 10 µM [cytotoxic, partial curve, poor fit] | –
19 | CCN1CCN(c2ncnc3c2cnn3-c2ccc(C)c(C)c2)CC1 | inconclusive: 15.8 µM [cytotoxic, single point] | –
20 | CCOc1ccc(C(=O)Nc2cccc(OCc3cc(=O)n4cc(C)sc4n3)c2)cc1 | inconclusive: 6.31 µM [cytotoxic, partial curve] | –
21 | CCCCOC(=O)c1cccc(NC(=O)c2cc3ccccc3o2)c1 | active: 10 µM | –
22 | CC(C)c1ccc(/C(C(=O)O)=C(\O)C(=O)O)cc1 | – | inactive: -20.2% [at 9.22 µM]
23 | Cc1ccccc1OCC(=O)Nc1ccc(N2CCN(C(=O)C(C)C)CC2)c(Cl)c1 | inconclusive: 20 µM [cytotoxic, single point] | –

Row | SMILES | Potency | activity change, negative = cell killing
24 | CCc1cccc(NC(=O)Cn2nc(-c3cc(C)ccc3C)ccc2=O)c1 | inconclusive: 0.251 µM [cytotoxic, partial curve, poor fit] | –
25 | Cc1ccc(S(=O)(=O)C2(C(=O)NC3CCCC3)CC2)cc1 | inconclusive: 20 µM [cytotoxic, single point] | –
26 | Cc1cccc(CNc2cc(-c3ccccc3CN(C)C)ncn2)c1 | inactive | –
27 | c1ccc2c(c1)NC1(CCCC1)n1c-2nc2ccccc21 | inconclusive: 12.6 µM [cytotoxic, partial curve] | –
28 | CCCn1c(NCc2ccc(N(CC)CC)cc2)nc2ccccc21 | inconclusive: 10 µM [cytotoxic, single point] | –
29 | CCCN(CCC)C(=O)Cn1c(=O)n(-c2ccc(OC)cc2)c(=O)c2ccc(C(=O)NCc3ccc(C)cc3)cc21 | inactive | –
30 | Cc1ccc(-n2c(SCC(=O)Nc3cccc(C)c3)nc3c(oc4ccccc43)c2=O)cc1 | inconclusive: 0.005 µM [cytotoxic, full curve, poor fit] | –
31 | Cc1cccc(Oc2ccc3c(c2)Oc2ccccc2NC3=O)c1 | inconclusive: 12.6 µM [cytotoxic, single point] | –
32 | Cc1cccc(CNC(=O)c2ccc(NC(=O)N3CCSc4ccccc43)cc2)c1 | inactive | –
33 | CCN(CC)S(=O)(=O)c1cccc(C(=O)Nc2nc3cc4c(cc3s2)OCCO4)c1 | inactive | –
34 | CCc1cccc(NC(=O)CCS(=O)(=O)c2ccc3nc(C)sc3c2)c1 | inactive | –
35 | O=C(CSc1nc2c([nH]c3ccccc32)c(=O)n1-c1ccccc1)N1CCCCCC1 | inconclusive: 3.16 µM [cytotoxic, partial curve, poor fit] | –
36 | O=C(NCCCN1CCN(c2ccccc2F)CC1)c1cc2c(s1)-c1ccccc1OC2 | active: 12.6 µM | –
37 | COc1ccc(C(=O)Nc2nnc(C(F)(F)F)s2)cc1 | inconclusive: 12.6 µM [cytotoxic, partial curve] | –
38 | CC(=O)c1ccc(NC(=O)CCc2c(C)nn(-c3ccc(N4CCCCC4)nn3)c2C)cc1 | inconclusive: 10 µM [cytotoxic, partial curve] | –
39 | COc1ccc(CNc2ncnc3c2cnn3-c2ccc(C)c(C)c2)cc1 | inactive | –
40 | c1ccc(Cc2nnc3sc(-c4ccccn4)nn23)cc1 | inactive | –
41 | CCOc1ccc(-c2oc3cc(Cl)ccc3c(=O)c2O)cc1OC | active: 7.94 µM | –
42 | Cc1ccc(CNc2cc(C)nc3nc(-c4cccc(C)c4)nn23)cc1 | inconclusive: 1 µM [cytotoxic, full curve] | –
43 | CC(=NCc1ccco1)c1c(C)[nH]n(-c2nc3ccccc3s2)c1=O | active: 7.94 µM | –
44 | CC(=O)N1CCc2cc(NC(=O)c3ccc(C)cc3)ccc21 | active: 10 µM | –
45 | COc1ccc(C(=O)NC(c2ccc(Cl)cc2)c2cc(Cl)c3cccnc3c2O)cc1 (stereo not drawn) | inconclusive: 3.16 µM [cytotoxic, full curve] | –
46 | Cc1ccc(OCCCSc2nc(-c3ccc(C(C)(C)C)cc3)nc3cc(=O)[nH]n23)cc1C | active: 20 µM | –

Row | SMILES | Potency | activity change, negative = cell killing
47 | CC(=O)[C@H]1CC[C@@H]2[C@H]3CC=C4C[C@@H](O)CC[C@]4(C)[C@H]3CC[C@]12C | inactive | –
48 | Cc1ccc(S(=O)(=O)NCCc2csc(-c3cccc(F)c3)n2)cc1 | active: 15.8 µM | –
49 | CCCc1nc(N)c(C#N)c(-c2cccnc2)c1CC | inactive | –
50 | c1ccc(CN2CCC3(CCCc4ccccc43)CC2)cc1 | inconclusive: 20 µM [cytotoxic, single point] | –
51 | CCN(CC)CCCNC(=O)c1ccc2c(Cl)c3c(nc2c1)CCCC3 | inconclusive: 10 µM [cytotoxic, single point] | –
52 | Cc1c(C(=O)NC(C)c2ccccc2)sc2nc3n(c(=O)c12)CCCC3 (stereo not drawn) | inconclusive: 31.6 µM [cytotoxic, single point] | –
53 | CC(=O)Nc1cccc(NC(=O)c2oc3ccccc3c2C)c1 | inconclusive: 12.6 µM [cytotoxic, single point] | –
54 | Cc1nn2cc(-c3ccccc3)nc2s1 | active: 10 µM | –
55 | CC1=C(C(=O)OC2CCCCCC2)C(c2cccc(Cl)c2)CC(=O)N1 (stereo not drawn) | active: 20 µM | –
56 | COC(=O)c1ccc2c(c1)N(Cc1nc(-c3cccc(Cl)c3)oc1C)C(=O)C1CCCN21 (stereo not drawn) | inconclusive: 3.98 µM [cytotoxic, partial curve] | –
57 | CCOc1ccc(-n2nc3ccc(NC(=O)c4ccc(-c5cccc(Cl)c5)o4)cc3n2)cc1 | active: 7.94 µM | –
58 | CC1=Nc2cc(C(=O)NCCc3ccc(Cl)cc3)ccc2Sc2c(C)ccc(C)c21 | inconclusive: 0.251 µM [cytotoxic, full curve, poor fit] | –
59 | CC1CCCCN1CCCNC(=O)c1cc(Sc2ccc(Cl)cc2)nc2ccccc12 (stereo not drawn) | inconclusive: 15.8 µM [cytotoxic, single point] | –
60 | CCOC(=O)CSc1nnc(-c2ccoc2C)n1-c1ccc(OCC)cc1 | inactive | –
61 | COc1ccccc1CNC(=O)c1oc2ccc3c(c2c1C)C(=O)CC(C)(C)O3 | inconclusive: 7.94 µM [cytotoxic, partial curve] | –
62 | O=C1C(c2ccnc3ccccc23)=C(O)c2ccccc21 | inconclusive: 1.12 µM [cytotoxic, partial curve] | –
63 | COc1ccc(NC(=O)c2cnc(N3CCCCC3)c3ccccc23)cc1Cl | inconclusive: 12.6 µM [cytotoxic, single point] | –
64 | Cc1cc(-c2ccc(S(=O)(=O)Nc3ccc(Cl)cc3C)cc2)on1 | inconclusive: 0.316 µM [cytotoxic, full curve, poor fit] | –
65 | O=C(CSc1nnc(NC(=O)c2ccco2)s1)NC1CCCCC1 | inactive | –
66 | COc1ccc(NC(=O)CCS(=O)(=O)c2nc(-c3ccc4c(c3)OCO4)cc(C(F)(F)F)n2)c(OC)c1 | inconclusive: 3.16 µM [cytotoxic, single point] | –
67 | Cc1cc2ccccc2n2c(SCC(=O)Nc3cccc(C(F)(F)F)c3)nnc12 | inactive | –
68 | CCc1ccc(-c2nn[nH]n2)cc1 | inconclusive: 12.6 µM [cytotoxic, partial curve] | –
